About 14,000 (4.5%) of roughly 310,000 compounds showed an effect of 50% or more. Effects have a minus sign here. Some of the results follow.
Molecular target: human ether-à-go-go-related gene (hERG) potassium channel (human, UniProt Q12809)
Assay: primary screen, population patch clamp on CHO cells stably expressing hERG
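Further: peak tail current of the secondary pulse compared with the same well before compound.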

Chain of human ether-à-go-go-related gene (hERG) potassium channel (Q12809 whole entry, looked up): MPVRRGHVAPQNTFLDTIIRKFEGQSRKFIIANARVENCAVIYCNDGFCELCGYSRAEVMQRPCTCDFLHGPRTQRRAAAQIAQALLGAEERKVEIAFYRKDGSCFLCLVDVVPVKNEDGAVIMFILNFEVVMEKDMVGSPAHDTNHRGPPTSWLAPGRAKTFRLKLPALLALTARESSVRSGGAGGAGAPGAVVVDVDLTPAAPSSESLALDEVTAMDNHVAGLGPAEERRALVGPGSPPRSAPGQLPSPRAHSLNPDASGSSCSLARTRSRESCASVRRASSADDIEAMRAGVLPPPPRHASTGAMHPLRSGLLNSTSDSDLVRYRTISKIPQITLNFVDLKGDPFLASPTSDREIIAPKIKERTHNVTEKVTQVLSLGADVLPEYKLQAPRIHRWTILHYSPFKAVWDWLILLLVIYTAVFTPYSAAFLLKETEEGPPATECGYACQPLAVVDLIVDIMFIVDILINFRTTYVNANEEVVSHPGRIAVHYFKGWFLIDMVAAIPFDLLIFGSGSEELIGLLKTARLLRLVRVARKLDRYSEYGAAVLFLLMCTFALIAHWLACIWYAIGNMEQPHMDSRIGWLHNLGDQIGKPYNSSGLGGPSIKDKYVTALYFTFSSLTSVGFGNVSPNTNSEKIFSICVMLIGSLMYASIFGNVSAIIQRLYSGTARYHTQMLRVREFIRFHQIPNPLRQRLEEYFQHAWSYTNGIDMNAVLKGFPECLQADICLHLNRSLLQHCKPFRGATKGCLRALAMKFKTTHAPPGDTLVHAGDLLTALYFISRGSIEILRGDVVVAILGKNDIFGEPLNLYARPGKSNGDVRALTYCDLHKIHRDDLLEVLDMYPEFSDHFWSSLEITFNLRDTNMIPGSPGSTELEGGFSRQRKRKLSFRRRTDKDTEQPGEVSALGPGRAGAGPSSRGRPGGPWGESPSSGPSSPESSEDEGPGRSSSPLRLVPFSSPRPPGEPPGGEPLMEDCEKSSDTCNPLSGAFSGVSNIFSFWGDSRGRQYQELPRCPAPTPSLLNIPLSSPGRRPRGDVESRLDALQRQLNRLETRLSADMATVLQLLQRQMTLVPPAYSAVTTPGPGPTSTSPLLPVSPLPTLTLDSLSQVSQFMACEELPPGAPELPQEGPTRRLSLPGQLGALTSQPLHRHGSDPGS

SMILES | hERG current change (%, negative = inhibition) at 10uM [%]
Cc1ccc(S(C)(=O)=O)cc1S(=O)(=O)Nc1ccccc1 | 4.45
CCC1CCCCN1C(=O)CSc1nnc(-c2ccc(OC)cc2)o1 (stereo not shown) | -19.2
CCC(C)NCCOCCOc1ccc(Cl)c(C)c1C.O=C(O)C(=O)O (stereo not shown) | -31.7
COC(=O)c1ccc(S(=O)(=O)NCc2ccccn2)n1C | 16.8
CCCC(C(=O)NC(C)(C)C)N(CC1CCCO1)C(=O)CNS(=O)(=O)c1ccc(F)cc1 (stereo not shown) | 10.2
CCOC(=O)C1=C(C)N(CCCC(=O)NCc2ccc3c(c2)OCO3)C(=O)NC1c1ccc(Br)cc1 (stereo not shown) | 16.4
COc1ccc(/C(C)=N/NC(=O)c2nnn(-c3nonc3N)c2-c2ccccc2)cc1 | 19.8
O=C(CNC(=O)c1ccncc1)N/N=C/c1ccc(Br)cc1 | -22.7
Cn1cccc1Cc1nnc(SCC(=O)Nc2nccs2)n1C | 13.3
CC(C)(C)c1ccc(S(=O)(=O)Nc2ccccn2)cc1 | 21
Cc1cccc(N2CCN(C(=O)Cn3cccc3)CC2)c1C | 2.77
COC(=O)c1cccc(S(=O)(=O)N2CCC(c3nc4ccccc4o3)CC2)c1 | -1.94
O=C(c1ccc2nccnc2c1)N1CCN(c2cccc(C(F)(F)F)c2)CC1 | -40
O=C(NCc1ccco1)C(=O)NCC1OCCCN1S(=O)(=O)c1ccc(F)cc1 (stereo not shown) | 0.0912
CC(C)Cc1nc(SCC(=O)N2CCCCC2)c2c(=O)n(C)c(=O)n(C)c2n1 | -43.1
COc1c(S(=O)(=O)N2CCN(c3ccc(F)cc3)CC2)ccc(Cl)c1Cl | 15.2
Cc1nn(C(C)(C)C)c(C)c1/C=N/OC(=O)Nc1ccc(Cl)cc1 | -27
Cc1nn(C)cc1CNC(=O)CCC(=O)O | 16.9
CCOC(=O)C1=C(CN2CCN(C(=O)c3ccco3)CC2)NC(=O)NC1c1ccc(OC)cc1 (stereo not shown) | -64.9
O=C1NC(=O)C2(COC(c3ccccc3Cl)OC2)S1 (stereo not shown) | 21.6
CCCCC(=O)Nc1ccnc(-c2cccnc2)n1 | -23.9
Cc1cc(C(=O)Nc2nc(C)c(C(=O)N(C)C)s2)ccc1[N+](=O)[O-] | 4.84
COC(=O)c1cccc(NC(=O)CC2C(=O)NCCN2C(=O)Nc2ccccc2)c1 (stereo not shown) | 19.2
Cl.c1cnc(N2CCNCC2)nc1 | 11.9
COc1ccc(C(=O)NNC(=O)c2snnc2C)cc1 | 14.1

— publication PMC4336329 (PLoS ONE, 2015)
